How the values were obtained:
[1] = biological target: T1, IL-4Rα (on TF-1 cells) (UniProt P24394 26-825, limits assumed); experiment: cell-based or functional assay
[2] = biological target: T1, IL-4Rα (on TF-1 cells); experiment: cell-based or functional assay; remark: listed apart in the source
[3] = biological target: T2, IL-5 (human, UniProt P05113 20-134); experiment: cell-based or functional assay
[4] = biological target: T3, IL-4Rα (receptor protein / antigen) (UniProt P24394 26-232, limits assumed); experiment: BLI (Octet 96), method of Example 4
T3 construct: also called IL-4 receptor subunit α

[5] = biological target: T2, IL-5; experiment: BLI (Octet 96), method of Example 4
T2 sequence (P05113 20-134 limits assumed): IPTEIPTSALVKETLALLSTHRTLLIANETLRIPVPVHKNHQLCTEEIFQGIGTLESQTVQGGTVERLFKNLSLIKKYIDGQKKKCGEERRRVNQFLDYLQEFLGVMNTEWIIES

[6] = biological target: T3, IL-4Rα (receptor protein / antigen); experiment: BLI (Octet 96), method of Example 4; remark: listed apart in the source
Protocol: (§1) Assay steps: Octet 96 and Data Acquisition software in the supporting computer were run. The bottom and sides of an acquisition probe were cleaned using a lens tissue with an appropriate amount of 75% ethanol, and the instrument was preheated for 15 min or more. Sensor pre-wetting: before the assay, the Sensor was soaked in the SD buffer for 10 min or more for later use. Then, the machine procedure was set according to: baseline→antibody→baseline→antigen binding→antigen dissociation→sensor regeneration for assay operation.
(§2) Affinity kinetic assay for the humanized bispecific antibody was carried out by the assay method shown in example 4, and the assay results are shown in Table 11.

[7] = biological target: T2, IL-5; experiment: BLI (Octet 96), method of Example 4; remark: listed apart in the source
Protocol: as §1, §2

[8] = biological target: T3, IL-4Rα (receptor protein / antigen); experiment: BLI (Octet 96), method of Example 4, antibody on sensor, antigen in solution
Protocol: as §1, §2

[9] = biological target: T2, IL-5; experiment: as above
Protocol: as §1, §2

[10] = biological target: T2, IL-5; experiment: competition ELISA: IL-5R coated, biotin-IL-5 at EC80 mixed with antibody dilutions, OD450
Protocol: (§3) (3) A biotin-conjugated ligand protein (IL-4 or IL-5) was diluted to 2 times the EC80 concentration, and the antibody was diluted to 2 times the initial concentration, and 5-fold gradient dilution was carried out. The ligand protein, and the diluted antibody (dupilumab, 4E9V10-2B3V2, 4E9-V0 or 2B3 (SEQ ID NO. 25)) and hIgG respectively, were transferred at 1:1 into a new dispensing plate and mixed well.
(§4) (7) A stopping solution was added, and the values of samples in different wells were immediately read at the wavelength of 450 nm with a microplate reader and recorded as OD450. EC50 was calculated by plotting. 4E9-V0, non-humanized anti-[…] single domain antibody 2B3, dupilumab, reslizumab, and hIgG were used as controls, and the results are shown in Tables 6 and 7 and FIGS. 5 and 6, respectively.

[11] = biological target: T3, IL-4Rα (receptor protein / antigen); experiment: competition ELISA: IL-4Rα coated, biotin-IL-4 at EC80 mixed with antibody dilutions, OD450
Protocol: as §3, §4

- EC50 of neutralizing IL-4-induced TF-1 cell proliferation [1]: 0.262 nM
- EC50 of neutralizing IL-13-induced TF-1 cell proliferation [2]: 0.215 nM
- EC50 of neutralizing IL-5-induced TF-1 cell proliferation [3]: 0.175 nM
- Kd [4]: < 1 nM
- Kd [5]: < 1 nM
- koff [6]: 4.6e-05 s⁻¹
- kon [6]: 198000 M⁻¹ s⁻¹
- koff [7]: 0.000141 s⁻¹
- kon [7]: 213000 M⁻¹ s⁻¹
- Kd [8]: 0.233 nM
- Kd [9]: 0.663 nM
- EC50 [10]: 3.61 nM
- EC50 [11]: 3.65 nM
B1: anti-IL-4Rα/IL-5 protein bispecific single domain antibody 4E9V10-2B3V2 (bispecific antibody, human IgG4)
chain: QVQLVESGGGLVQPGGSLRLSCAASGDFYCMAWFRQAPGKEREAVAAIRSGGRSTYYADSVKGRFTISRDNSKNTLYLQMNSLKAEDTAVYYCAVGVDGNCRNYWGQGTLVTVSS[gap - human IgG4 Fc]ESKYGPPCPSCPQVQLVESGGGSVQAGGSLRLSCAASGNTFSFSTYCMGWFRQSPGKEREGSLATIYDASTAYAGSVKGRFTISRDNSKNILYLQMNNLRAEDTAVYYCAAARYCMFWSHPSYWGQGTQVTVSS
notes: Single polypeptide VHH-Fc-VHH; also called IL-4Rα/IL-5 bispecific antibody; humanized bispecific antibody

From patent US20230279123A1 (REGENECORE BIOTECH, published 2023)
